± gives the standard deviation of the averaged measurements. This is one part of the list.
System: PfAP2-I AP2 domain 3 (GST-tagged)
Assay: gcPBM binding intensity (ln(normalized median fluorescence intensity)); higher = stronger DNA binding
Outline: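 Binding of GST-tagged P. falciparum DNA-binding domains, expressed in E. coli and used at about 25 μg on average, was carried out for 1 h in 1× PBS containing 1% milk, 0.2 mg/ml BSA, 0.5% salmon testes DNA and 0.03% Triton X-100. The target was an Agilent 4 × 180k array of primer-extended double-stranded 36-bp intergenic genomic probes plus negative controls, read with Alexa488 anti-GST antibody at 488 nm. Binding intensity is the highest Masliner-normalised natural-log median intensity across replicate spots of either probe orientation.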

Sequence	gcPBM binding intensity (ln)
ACATTATATAAATATATACATATATATATATATAAA [GTGCAC_negctrl_site115]	7.53 ± 0.38
TTTGATAAATGATACACACACAATATTTATAAAATA [CACACA_site7040]	7.74 ± 0.54
TCAGAAATATTACAAAGTACATGCAACGAAAATTTC [XGTACX_site5061]	7.88 ± 0.89
ACACAATGTAGTGTATAAATACAATAAAAGGTTGTA [TGCATGCA_negctrl_site251]	7.61 ± 0.68
TCTTATAATTTACCTACACACAGGAAATATATAAAT [CACACA_site294]	7.84 ± 0.45
TGATATTTAAATTTTGCACACGCATATGAAATTAGG [CACACA_site1034]	8.91 ± 0.16
ATGACGTAGTGGTGTACACACATGGTACCTTTATTC [CACACA_site1547]	8.34 ± 0.45
AAAAAAATATTCAAAGCATGCCTATTTACACATATT [TGCATGCA_site806]	7.6 ± 0.64
AAAAAAAAAAAAAAAGTGCATTAATAAATTTTAATA	11.5 ± 0.61
ATACGAAAATATTTTGCACACTATAATTATTCATAT [CACACA_site1765]	9.67
TTTCCCTACCAAAAGTGTACTTATACATATTTTTAT [XGTACX_site5495]	7.87 ± 0.67
ACATATTATTCTTCTTGTACACATAAATTTTATAAA [XGTACX_site299]	8.66 ± 0.4
ACATCTATGTATAATACACACACTAATATATAATTG [CACACA_site5134]	7.84 ± 0.54
TTTTTTTCATAATATACACACAAAAAAAAAAAAAAA [CACACA_site3224]	8.12 ± 0.68
TATACTCATATATAAACACACAAAAAAAAAAAAAAA [CACACA_site5165]	8.04 ± 0.69
ATATATATATATATGTGTACATATATATATCATATG [XGTACX_site3126]	9.31 ± 0.6
TGTGTATATATGCTGGTGCAACTTTAAAAAATAATC	9.52 ± 0.057
AAATTATATACCACAGTGCAAAAGGCAGGTATACGT	10 ± 0.11
TATTATTTTAAGATTGTTTATGTAAAGAATTATGAA [CACACA_negctrl_site445]	7.41 ± 0.3
TTTTTTTTTTTTTGCACACACATATATAAATATATA [CACACA_site3949]	9.53 ± 0.4
TATATTGCAAAAAGTACACACATAAATAAATACATA [CACACA_site6589]	8.2 ± 0.24
GTAGAGAAAAAAATGTGGACACAAAAAATAAAAAGG [XGTACX_site4058]	8.43 ± 0.46
GTTTATATGTTCATAGTGCATATATGTTGATTTATT	10.2 ± 0.33

Sequence	gcPBM binding intensity (ln)
TATAAAAAAAAAAAAAAAAAAAAAAAAAAAAAAAAA [TGCATGCA_negctrl_site42]	8.21 ± 0.73
TTTTTTTTTTTTTACTGTACTTAATAAGATTGAATA [XGTACX_site2384]	8.11 ± 0.59
CAGGAGAGAAAATATCGTACAAGCAAAAATAAGTGG [XGTACX_site8557]	8.23 ± 0.65
ATAAATATTATTTTACGTACATATTTATGAAGTATT [XGTACX_site8746]	7.92 ± 0.29
AAATTATAAAAATGTAGTACAGACAATATATTCGTA [XGTACX_site8307]	8.03 ± 0.33
AAATATAATAATACATTGCACATATATTATATATAT [TGCATGCA_negctrl_site611]	8.53 ± 0.64
TGTAATAATCTTCATTTCTTTTTTTTTTTTTTTTGT [CACACA_negctrl_site1388]	7.18 ± 0.65
AGTGAATATTACGAAACACACAAAAAAATACATTTC [CACACA_site511]	7.74 ± 0.59
TAACTTAATAAAAAAAGTACATATATTTTTAATAAA [XGTACX_site2707]	7.6 ± 0.17
TATTTATTTATTTTGTTATAATTAAAATGGATACAT [XGTACX_negctrl_site387]	7.63 ± 0.44
CTACACACTTATAAATGTACAGGATTTAAGTATATG [XGTACX_site8245]	7.66 ± 0.45
AGTAGTCTGGAGAAGAGTACATAGTATCTGGTAGCT [XGTACX_site2017]	7.89 ± 0.83
TACAGTAAAAATAGTTGTACTTGTTTATTTCTTCTT [XGTACX_site7674]	7.44 ± 0.4
AAAAGGATATATGAAAGTACAAAGGTATAGTATATT [XGTACX_site7385]	8.09 ± 0.86
ATAATACCAGAATAGATTTAAATGAATATTTTATTT [CACACA_negctrl_site476]	7.42 ± 0.55
ATCTTATCATTTTAAAGTACATAATTAATTCTTTTT [XGTACX_site3999]	7.95 ± 0.45
TATAACAAATAAAAATGTACATATATATAATATATA [XGTACX_site6173]	7.72 ± 0.23
ATGTGTTTGTATATATGTACATATTTATGTTATTTC [XGTACX_site6960]	8.07 ± 0.57
TATATATATAAATACACACACACAAAAAAAAAAAAA [CACACA_site4930]	8.41 ± 0.49
AATTTAATTGTGAGAGTGCGTACTGCTCCACATATA	8.69 ± 0.042
AAAAAAAAAAAAAAAAAAAAAAAAAAATGAGATACA [GTGCAC_negctrl_site160]	9.7 ± 0.11
TTTTGATATATGAATATTAAGTTATATAATATTTTA [TGCATGCA_negctrl_site39]	7.26 ± 0.43
GCCGCACCCAGATACGCACACAAGAAAAAAATATTC [CACACA_site3456]	8.705 ± 0.021

Sequence	gcPBM binding intensity (ln)
TATGGATAAATAAATACACACATAAATTTAAATATA [CACACA_site1282]	7.57 ± 0.61
TGAACATTATAGAAAAGTACTTAGTTTTTAAAAAGA [XGTACX_site6864]	7.88 ± 0.4
TATTCAAAACGGTATTGTACAAATTTTATAATTTAA [XGTACX_site6928]	7.57 ± 0.59
TATAAACGCACCTACACACACAACGTAAATGCATTG [CACACA_site7120]	10.7 ± 0.63
ATTTTTAAATACAGTACACACATGGGTTTAAATTAT [CACACA_site2884]	7.87 ± 0.58
TATTCTAGAATTTTAACACACAAGAATATAAACTTT [CACACA_site6757]	7.58 ± 0.56
TATTTATATTTATATACACACATATATACCTATATA [CACACA_site7820]	7.74 ± 0.52
GATTATTTTAGAAGTACACACATTTATATATAATAA [CACACA_site5429]	8.14 ± 0.25
GGTTATATGATAGGATGTACAATTAAAAGTAAATAT [XGTACX_site5083]	8.22 ± 0.6
TTATTATTCTTAAGGATATAACAAAAAAGAAAAATT [CACACA_negctrl_site1402]	7.71 ± 0.83
TCCTATAAACAAATTTGTACATATAAGAATATATTC [XGTACX_site3892]	7.74 ± 0.44
TAAAATATAATGATCACACATATAAACAAGTGGGTA [CACACA_site4651]	7.6 ± 0.68
TTTTGTAGATATTGAAGTACAAAAAAAATGTAAAAG [XGTACX_site5905]	8.09 ± 0.71
ATCGGTAATATTAACACACACATTTATATATATTTA [CACACA_site1084]	8.02 ± 0.41
TATATATCGCCCTTCACACACACACGGATATAAATA [CACACA_site7221]	8.46 ± 0.38
ATAATAAATATATAATGTACATATTATGTTCTTTAT [XGTACX_site8655]	7.64 ± 0.54
CGCTCTTATAAATGTTGTACATAAAACTGTTCATTA [XGTACX_site3409]	7.71 ± 0.52
ATATATATATATATATGTACATATTTGATTTTTCTT [XGTACX_site8171]	9.17 ± 0.31
ACAACATATGTTATCACACACATATAAATATAAATA [CACACA_site7038]	7.79 ± 0.45
ATTTTGATGATGTATGCACACATTGAAAATGAGAAA [CACACA_site2916]	8.87 ± 0.42
TCACTACATTTTGGACGTACACAACTTGATATATTG [XGTACX_site4775]	7.88 ± 0.73
CACACGCACAGACACACACACACACGGATATAAATA [CACACA_site6301]	8.39 ± 0.28
TTTTTTTTTTTTTTTTGTACATATAAAAATACGTAA [XGTACX_site6003]	8.12 ± 0.66

Sequence	gcPBM binding intensity (ln)
AAATCTTAACTCTATGCACACATAAAAGTATATAAA [CACACA_site8709]	9.11 ± 0.014
ATGATATACTTGAGTGTGCACAAACTATTACTTACA	10.7 ± 0.17
ATATTTTGATAATATTGTACAAAAACATTAAAATGT [XGTACX_site8361]	7.7 ± 0.42
AACATTATGTTTATTTGTACATATAAATATATGTAA [XGTACX_site7389]	7.58 ± 0.31
TCTTTTATGATATTTACACACAAACGTGAGATAGCT [CACACA_site2312]	7.75 ± 0.64
CTCTACGAATTCATAGTGCAAAGAGCTAATTTTTTC [GTGCAC_site9710]	9.12 ± 0.53
GATCATTCAGTTTTATCACACACAATCAAACATATA [CACACA_site8882]	8.03 ± 0.56
ATGCGTTAATCTATATATATTATGTATAGATTTTCA [CACACA_negctrl_site1650]	7.65 ± 0.4
AACATATTTATGATGTGTACCTACATAATAGAATTT [XGTACX_site141]	7.54 ± 0.49
CATAATGTAAATAAGTGTACACATATATAATACATA [XGTACX_site3108]	8.09 ± 0.23
TTTTTTAATATATTATTATAAATATTTTTTATGTGT [GTGCAC_negctrl_site712]	7.54 ± 0.47
ACTACATAATATTAACGTACATATTATAATACTTGC [XGTACX_site954]	7.95 ± 0.57
ATATAACACATTAGTTGTACTATTTTTAATTGGTGA [XGTACX_site961]	7.62 ± 0.56
TACATAATAACATGTACACACATTCTTCTATAAATG [CACACA_site4061]	7.77 ± 0.45
ACATAATAAAAATGACGTACAATTTTTTTTTTTCAT [XGTACX_site8340]	7.75 ± 0.38
CATTAAAAAGAAAGTTCACACACATATATATGACGG [CACACA_site8836]	7.82 ± 0.49
TTTATATTATTAGAAACACACATTAGATTAAAATTA [CACACA_site3286]	7.37 ± 0.42
TATATATATATGTGCACACCAATTGTATGTAATATA [CACACA_site3889]	10.04 ± 0.092
TATTTAATTACATGAACACACATTATATATTTTTAA [CACACA_site5615]	7.53 ± 0.46
TGCTATAATTTATATACACACAAATATATACACATA [CACACA_site9356]	7.8 ± 0.34

Reference: the supplement of paper PMC11417369
